# Experimental data taken from PMC12136788.
# The other results are listed elsewhere or left out.
# B1: chr8:109229674:109229675:-_ENSG00000104408_ENST00000220849|hu_mus|FALSE|FALSE (ssRNA)
# RNA: GGGAGUUCUACAGUCCGACGAUCGUUGGUUAUGACGGCAGUAGUCAAAUAGCGUAGAAUAUGUGGACACAUUGUCUGAAUUGCAUUAAGAUACUGUGGUUGGUAAAGGAAGAGAUCAAUAAUGUUAUCACGGCCCUUUGGAUGCAACAGAGGAUUGAGCAUCA
# B2: 27877177_27877297_2358_CDS_ENSG00000126705_ENST00000374011|human|control|control (ssRNA)
# RNA: GGGAGUUCUACAGUCCGACGAUCUACGGGGAUCUUGGCCAUCUUCACCACCAUGCGCCGCACGCCCCGGCACUUGCCUUUGCGGGUAGAGACCACUGGGGUCUGGGAAGAUUCCGGCUUCAACUCUGGGACUGAGACCGGGCCCAACAGAGGAUUGAGCAUCA
# B3: chr13:100193941:100193942:-_ENSMUSG00000052727_ENSMUST00000064762|mus_hu|FALSE|FALSE (ssRNA)
# RNA: GGGAGUUCUACAGUCCGACGAUCAUUUUCUCUAAACUCUACAUGAACCGUAGGAGUUGAGAAUUCAUUUGUUUUCAAUGUACUAUUUCUUUUAUUUUUUUUUUCCAGAAAAGAAAAUCCCAAAGCAAAUUUGUGCUAGGGUUCCAACAGAGGAUUGAGCAUCA
# B4: chr17:40995140:40995141:+_ENSG00000131467_ENST00000293362|hu_mus|FALSE|FALSE (ssRNA)
# RNA: GGGAGUUCUACAGUCCGACGAUCCAUGGUAAAAGAAUUUUACAUUACAAUCCAAGGAAGGAGGGGCAGAGGGACAAUCAAACAAAAGGAAAACCAAGAAACACAUGGUGGGGGGAGGGGAGGGGCUCAGCUGGAAGGGAUCUGCAACAGAGGAUUGAGCAUCA
# B5: chr16:94651144:94651145:+_ENSMUSG00000040785_ENSMUST00000117648|mus_hu|mus_mus_mus_hu_True|18_108 (ssRNA)
# RNA: GGGAGUUCUACAGUCCGACGAUCAUUCUCUUGGAUCAAGUGGCGAAUAACAUAGUCCACUGCUUCAUUUAGAAAAUUUCUGCUAGAAAAACAGGUUGUAUAGUCUUCUGUGCUCAAAACCUUCCAAGAAAGCAAUUCUUUGAGCAACAGAGGAUUGAGCAUCA
# B6: 56803057_56803840_1029_CDS_ENSMUSG00000028431_ENSMUST00000030140|mouse|control|control (ssRNA)
# RNA: GGGAGUUCUACAGUCCGACGAUCAAGCACCGAGGAAUCUGCAUUCCACAGCAGGUCAUUUACCUUAACUUCAUCUUUUAAGAAAGGAAGUGUAAAAUGUCCAUGAAGAAGUCCAUUUUUCUCAAAAAACACAACAUCUUGCUGCAACAGAGGAUUGAGCAUCA
# B7: chr5:21408736:21408737:-_ENSMUSG00000042453_ENSMUST00000161356|mus_hu|mus_mus_mus_hu_False|8_98 (ssRNA)
# RNA: GGGAGUUCUACAGUCCGACGAUCGUUGACAGAGUUGUAAAUGGUGGCUUCAUGGAACUGGAAAGGGGAGCAGCCAAUGCUGUUAGAAGAGGAAGGAAGGCACUGGGUCUGUACGAGCUGCCAGGAAUCGGACCUUGCAUCCUUCAACAGAGGAUUGAGCAUCA
# B8: chr1:84735391:84735392:-_ENSMUSG00000026219_ENSMUST00000027421|perfect_dup|FALSE|FALSE (ssRNA)
# RNA: GGGAGUUCUACAGUCCGACGAUCCAUUGCUCGGUCCCGAUCAAAUGCAGUUACAUAAAAAAGCAUUUGCCGGGUAUCAAAAGGAAAGAAAAAUGGGCAGGUUUUUCCUAGCUCAGUAAGCCAUGUUGGGAUGUUUCCUGUCAUCAACAGAGGAUUGAGCAUCA
# B9: chr9:14812383:14812384:-_ENSMUSG00000031934_ENSMUST00000164273|mus_mus|mus_mus_mus_hu_True|38_78 (ssRNA)
# RNA: GGGAGUUCUACAGUCCGACGAUCAUAGCCCAGGUAGAUACACGCUAACAGUAUAAUCACAAAUGUCAGCAGGCGGCAGCUAAUGUACUUGAUGAUUAAAUGACUAGAAUUUUUCUUUGUCUUCAAGUACUGCUCCACAAUUGGCAACAGAGGAUUGAGCAUCA
# B10: chr6:86474593:86474594:-_ENSMUSG00000051695_ENSMUST00000053015|mus_mus|motif|central (ssRNA)
# RNA: GGGAGUUCUACAGUCCGACGAUCCAUUUCUUAUCGACAAACAGAAAAUAAAAUCCAUGAGCCAAAAAAACCCAAACGAAACGGAAAACAGGGAAAAGCUUAUAAAACUAAAUAUGGAUCCCAGCAUUAACGGCUGAACAGAGACAACAGAGGAUUGAGCAUCA
# B11: chr9:91931296:91931297:+_ENSG00000123975_ENST00000314355|hu_mus|FALSE|FALSE (ssRNA)
# RNA: GGGAGUUCUACAGUCCGACGAUCAGAUUAGAUGAUCCCAGCUGCACUUCAUUUUUGUUGUUCUUUUGGAAGAGGUCGUCUAAAGAGAAGAAUAUGCGGUUCUGGCUCAUGAAUCAUGUAAUGAACCCAUCCUAGACUCUGUUGCAACAGAGGAUUGAGCAUCA
# B12: 16560896_16561016_1087_3pUTR_ENSMUSG00000025939_ENSMUST00000117146|mouse|control|control (ssRNA)
# RNA: GGGAGUUCUACAGUCCGACGAUCUAAUCCCACAACAACUGAUAAAUUCAUUUCAUAGGCCCUAUCAUGCAUUAAUCACCAAGUGGCAGGAGUUAAGAAAACUCUUCCUUUUACAACGUCCAUUGCCGGCAAUGAACGUCCCCACAACAGAGGAUUGAGCAUCA
# B13: chr4:17845017:17845018:+_ENSG00000109805_ENST00000514176|hu_mus|hu_hu_hu_mus_False|18_38 (ssRNA)
# RNA: GGGAGUUCUACAGUCCGACGAUCGCUCUCUUAACUUGUAUCUUCAUUAAGGAACUCUGCAAGGUUAAGUUUACUUUUCUGUAGCGCAGCUGUUUUGCUCGUCUUGGGUAAUCUCAUUUCAUUUCUGGAUGGUGGUUCAUGAUCCAACAGAGGAUUGAGCAUCA
# B14: chr11:106642694:106642695:-_ENSMUSG00000020719_ENSMUST00000021062|mus_mus|FALSE|FALSE (ssRNA)
# RNA: GGGAGUUCUACAGUCCGACGAUCAAUCUGGAAUUAUAAAAUCCAUUGUCUCUAACUUCUUCCCAUACAAACAGAUCAUCCUAAGGGCCUUCUGAGUUCCUCUCCUAAAUCCAGGAAUGGGAAGUAGUCAACUUUCCUUGUGUACAACAGAGGAUUGAGCAUCA
# Target: T1, UNK ZnF1-3 (human, UniProt Q9C0B0 31-174)
# T1 sequence: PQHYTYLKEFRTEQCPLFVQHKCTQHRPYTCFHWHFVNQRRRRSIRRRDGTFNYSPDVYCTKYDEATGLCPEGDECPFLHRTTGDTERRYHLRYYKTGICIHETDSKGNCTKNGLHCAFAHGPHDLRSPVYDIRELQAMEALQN
# Test: nsRBNS (natural sequence RNA bind-n-seq); RBNS binding buffer (assumed for nsRBNS): 25 mM Tris pH 7.5, 150 mM KCl, 3 mM MgCl2, 0.01% Triton X-100, 500 ug/ml BSA, 20 U/ml SUPERase-In, 4 C; UNK is unkempt and MSI1 is Musashi-1; names of the RNAs are library labels; protein concentration not given here; high values mean tight binding
row,Binder,binding signal [enrichment R]
1,B1,1.54
2,B2,1.03
3,B3,0.796
4,B4,2.36
5,B5,0.716
6,B6,1.02
7,B7,1.49
8,B8,0.656
9,B9,1.15
10,B10,2.72
11,B11,1.08
12,B12,1.03
13,B13,0.379
14,B14,0.664
